In PubChem BioAssay AID588855 (National Center for Advancing Translational Sciences (NCATS), 2011):
About 5,000 (1.2%) of roughly 410,000 compounds were called active. Inconclusive means that the source gave no clear call. Such entries were picked first, then a sample of the others. The call rests on the fitted dose curve; in most records, active means well fitted inhibition curve with a large enough effect; inconclusive means small, poorly fitted or top-dose-only effect; inactive means no such curve, though single readings can be large or run the other way. A potency beside an inconclusive call is a rough fit, not a confirmed value.

Test: qHTS for Inhibitors of TGF-b; further: nearly all actives have a fitted effect of over 65% in size
Conditions: HepG2 CAGA-GFP TGF-b/SMAD3 reporter, GFP fluorescence, 18 h, TGF-beta stimulated, 500 pg/mL final; series mostly up to 46.1 µM; activity, negative = inhibition: at the top concentration
In short: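 Read-out: total well GFP (ex488/em500-530) summed from mean per-cell fluorescence. Cells: HEPG2 CAGA-GFP, 1% FBS DMEM, 18 h at 37 degrees C with 500 pg/mL final TGF-beta. Unstimulated wells served as the full-inhibition control; stimulated DMSO wells = 0%.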
On the % scale 0 is the no-effect control and ±100 the full control effect; potency means the concentration at half of the fitted maximal effect; tags describe the fitted curve by direction and shape.

Q: Which Potency does the source give for `COc1ccc(C(=O)Nc2cccc(-c3nnc(-c4ccco4)o3)c2)cc1` here?
A: inconclusive: 14.1 µM [inhibitor, single point]

Q: For `O=C(CNC(=O)c1ccccn1)N=Nc1c(O)[nH]c2ccccc12`, which Potency is on record?
A: inconclusive: 11.2 µM [inhibitor, partial curve]

Q: For `CCCCC[C@@H](/C=C/C1C(=O)C=C[C@H]1C/C=C\CCCC(=O)O)OC(C)=O` (stereo partly drawn), which Potency is on record?
A: inconclusive: 12.6 µM [inhibitor, partial curve, poor fit]

Q: For `COc1cc(CN2CCNC(=O)C2CC(=O)NC2CCCC2)cc(OC)c1` (stereo not drawn), which “activity, negative = inhibition” value is on record?
A: inactive: 0%

Q: Which Potency does the source give for `COc1ccc(C)c2sc(N3CCN(C(=O)c4cccc(F)c4)CC3)nc12` here?
A: inconclusive: 35.5 µM [inhibitor, single point]

Q: Which “activity, negative = inhibition” value does the source give for `COc1cc(/C=C2/SC(=Nc3ccc(O)cc3)NC2=O)cc(OC)c1O` here?
A: inactive: 20.2%

Q: With `CCN(CC(=O)Nc1c(Cl)cccc1Cl)C(=O)C1CCN(c2ncnc3sc(C)c(C)c23)CC1` as the compound, how does the Potency read?
A: inconclusive: 6.31 µM [inhibitor, single point]

Q: With `COc1ccc(Cl)cc1-c1cc(C(=O)NCc2cccc(C(F)(F)F)c2)[nH]n1` as the compound, how does the Potency read?
A: inconclusive: 17.8 µM [inhibitor, single point]

Q: With `COc1cc2oc3cc(C#Cc4ccc(N)cc4)ccc3c(=O)c2cc1OC` as the compound, how does the Potency read?
A: inconclusive: 5.62 µM [inhibitor, full curve]

Q: With `C[n+]1ccc(/C=C/c2cc[n+](C)c3ccccc23)c2ccccc21` as the compound, how does the Potency read?
A: active: 7.08 µM

Q: With `COc1ccc(C(=O)c2c[nH]cc2-c2ccccc2)cc1` as the compound, how does the Potency read?
A: inconclusive: 0.501 µM [inhibitor, partial curve, poor fit]

Q: With `Cc1ccc(S(=O)(=O)CC(=O)N2CCN(c3ccc([N+](=O)[O-])cc3)CC2)cc1` as the compound, how does the “activity, negative = inhibition” value read?
A: inactive: -27.8%

Q: Which “activity, negative = inhibition” value does the source give for `CCOc1ccc(N(CC(=O)NC2CCCCCC2)S(=O)(=O)c2ccccc2)cc1` here?
A: inactive: -0.41%

Q: For `COC(=O)c1cccc(NC2=NS(=O)(=O)c3ccccc32)c1`, which Potency is on record?
A: inconclusive: 35.5 µM [inhibitor, single point]

Q: Which “activity, negative = inhibition” value does the source give for `CCCNC(=O)c1ccc(COc2ccc(CCC)cc2OC)o1` here?
A: inactive: 0.0307%

Q: For `COc1ccc(Cl)cc1C=CC=Nc1ccc(S(N)(=O)=O)cc1`, which Potency is on record?
A: inconclusive: 15.8 µM [inhibitor, single point]

Q: With `O=C(N=Nc1c(O)[nH]c2ccc(Br)cc12)c1ccccc1-n1cccc1` as the compound, how does the Potency read?
A: inconclusive: 10 µM [inhibitor, partial curve]

Q: With `C=CCSc1nc2ccccc2c(=O)n1C1CCOC(C)(C)C1` (stereo not drawn) as the compound, how does the “activity, negative = inhibition” value read?
A: inactive: -0.106%

Q: Which Potency does the source give for `CC1CCc2sc3nc(NCc4ccco4)n4ncnc4c3c2C1` (stereo not drawn) here?
A: inconclusive: 35.5 µM [inhibitor, single point]

Q: With `CCOc1ccc(CCNC(=O)c2oc(=O)c3ccccc3c2-c2ccc(C)cc2)cc1OCC` as the compound, how does the Potency read?
A: inconclusive: 15.8 µM [inhibitor, single point]

Q: With `O=C(CCNC(=O)c1ccc([N+](=O)[O-])cc1)NC1CCCc2ccccc21` (stereo not drawn) as the compound, how does the Potency read?
A: inconclusive: 35.5 µM [inhibitor, single point]

Q: For `COc1ccc(/C=N/N(c2ccccc2)c2ccccc2)cc1O`, which Potency is on record?
A: inconclusive: 20 µM [inhibitor, single point]

Q: Which “activity, negative = inhibition” value does the source give for `CC(C)C[C@H](NC(=O)NCc1ccc(F)cc1)C(=O)O` here?
A: inactive: 2.94%

Q: Which Potency does the source give for `CC(C)(C)c1ccc(C(=O)NCCc2csc(-c3ccc(Cl)cc3)n2)cc1` here?
A: active: 12.6 µM

Q: Which Potency does the source give for `COC(=O)C[C@@H]1C[C@@H]2c3cc(NS(=O)(=O)c4ccc(F)cc4)ccc3O[C@@H]2[C@H](CO)O1` here?
A: inconclusive: 11.2 µM [inhibitor, single point]

Q: With `Cc1ccccc1CSc1cn(CC(=O)N2CCCCC2)c2ccccc12` as the compound, how does the “activity, negative = inhibition” value read?
A: inactive: -13.5%

Q: With `CC(=O)Nc1cc(-c2ccc(CO)cc2)cn2c(-c3ccc(F)cc3)cnc12` as the compound, how does the “activity, negative = inhibition” value read?
A: inactive: 0.524%

Q: For `Clc1cccc(-c2nc3ccc(Br)cn3c2Cc2ccccc2)c1`, which Potency is on record?
A: inconclusive: 11.2 µM [inhibitor, partial curve, poor fit]

Q: With `O=C(COc1ccc(F)cc1)Nc1nc(-c2ccccn2)cs1` as the compound, how does the Potency read?
A: inconclusive: 6.31 µM [inhibitor, full curve, poor fit]

Q: Which Potency does the source give for `COc1ccc2sc(-c3ccc(SC)cc3)c(-c3ccc(O)cc3)c2c1` here?
A: inconclusive: 15.8 µM [inhibitor, partial curve, poor fit]

Q: With `Oc1c(Br)cc(/C=N/n2c(-c3ccccc3)n[nH]c2=S)c(O)c1Br` as the compound, how does the Potency read?
A: inconclusive: 35.5 µM [inhibitor, single point]

Q: Which Potency does the source give for `Cc1cccc(N2C(=O)CN(Cc3cccs3)C2=S)c1` here?
A: inconclusive: 4.47 µM [inhibitor, full curve, poor fit]

Q: With `O=C(Cn1c(=O)oc2cccnc21)Nc1ccccc1Oc1ccc(Cl)cc1Cl` as the compound, how does the “activity, negative = inhibition” value read?
A: inactive: 2.15%

Q: Which Potency does the source give for `NCCCCCCNS(=O)(=O)c1ccc2c(Cl)cccc2c1` here?
A: inconclusive: 35.5 µM [inhibitor, single point]

Q: With `O=C(CCC(=O)c1ccc(Oc2ccccc2)cc1)Nc1ccc(C(=O)O)cc1` as the compound, how does the “activity, negative = inhibition” value read?
A: inactive: -8.8%

Q: With `COc1ccc(CCn2c(S)nc3ccccc3c2=O)cc1` as the compound, how does the “activity, negative = inhibition” value read?
A: inactive: 1.36%

Q: Which Potency does the source give for `CCN(CC)C(C(=O)Nc1ccc(C(C)C)cc1)c1ccc2c(c1)OCO2` (stereo not drawn) here?
A: inconclusive: 35.5 µM [inhibitor, single point]

Q: Which Potency does the source give for `CCOC(=O)C(C)Sc1ccc2nnc(CCNS(=O)(=O)c3ccc(C)cc3)n2n1` (stereo not drawn) here?
A: inconclusive: 5.62 µM [inhibitor, single point]

Q: For `CC(CCc1ccc(O)cc1)NC1c2ccccc2-c2ccccc21` (stereo not drawn), which Potency is on record?
A: inconclusive: 35.5 µM [inhibitor, single point]

Q: For `Cc1ccc2cc(/C=N/NC(=O)c3ccccc3O)c(Cl)nc2c1`, which Potency is on record?
A: inconclusive: 6.31 µM [inhibitor, full curve, poor fit]

Q: Which Potency does the source give for `COc1cc(C(=O)Nc2nc(-c3ccc(Cl)cc3)c(C)s2)ccc1OCC(=O)Nc1ccc(F)cc1` here?
A: inconclusive: 3.98 µM [inhibitor, full curve, poor fit]

Q: For `CC(OC(=O)CNC(=O)c1ccc2ccccc2c1)C(=O)N(C)C1CCCCC1` (stereo not drawn), which Potency is on record?
A: inconclusive: 35.5 µM [inhibitor, partial curve, poor fit]

Q: For `COCC(C)NC(=O)CCS(=O)(=O)c1nc(-c2ccc(OC)cc2)cc(C(F)(F)F)n1` (stereo not drawn), which Potency is on record?
A: active: 11.2 µM

Q: Which Potency does the source give for `CCOc1cccc2sc(NN)nc12` here?
A: inconclusive: 35.5 µM [inhibitor, single point]

Q: Which “activity, negative = inhibition” value does the source give for `Oc1cc(NCc2ccc(Cl)cc2)cc2cccnc12` here?
A: inactive: -27.3%

Q: With `COc1ccccc1N1CCN(C(=O)CCCN2C(=O)c3cccc4cccc(c34)C2=O)CC1` as the compound, how does the Potency read?
A: inconclusive: 22.4 µM [inhibitor, single point]

Q: For `O=C1/C(=C\c2cccnc2)CCc2ccccc21`, which Potency is on record?
A: inconclusive: 35.5 µM [inhibitor, partial curve, poor fit]

Q: With `COC(=O)c1cc(NC(=O)c2cc(-c3ccc(OC)cc3)oc2C(F)(F)F)ccc1N1CCOCC1` as the compound, how does the Potency read?
A: inconclusive: 22.4 µM [inhibitor, single point]

Q: For `CCN(C(=O)Cn1c(=O)n(-c2cc(OC)c(OC)c(OC)c2)c(=O)c2ccccc21)c1cccc(C)c1`, which Potency is on record?
A: inconclusive: 5.62 µM [inhibitor, single point]

Q: For `CCOC(=O)C1=C(CN2CCN(c3ccccc3OC)CC2)NC(=O)NC1c1ccccc1` (stereo not drawn), which “activity, negative = inhibition” value is on record?
A: inactive: -33.7%

Q: Which “activity, negative = inhibition” value does the source give for `CC(C)NC(=O)N1[C@H](c2cccs2)[C@@H](C)C(=O)[C@@H](C)[C@@H]1c1cccs1` here?
A: inactive: -12.7%

Q: With `CCOC(=O)c1cccc(NC(=O)C2CCCN(S(=O)(=O)c3c(C)n[nH]c3C)C2)c1` (stereo not drawn) as the compound, how does the “activity, negative = inhibition” value read?
A: inactive: -20.1%

Q: For `COc1ccc(CNC(=O)c2oc3c(c2C)-c2nn(Cc4ccc(Cl)cc4)cc2CC3)cc1`, which “activity, negative = inhibition” value is on record?
A: inactive: -11.2%

Q: With `CC1CCc2c(sc3nc(CN4CCN(S(=O)(=O)c5ccccc5[N+](=O)[O-])CC4)[nH]c(=O)c23)C1` (stereo not drawn) as the compound, how does the Potency read?
A: inconclusive: 17.8 µM [inhibitor, single point]

Q: Which Potency does the source give for `OCc1n[nH]c(CO)n1` here?
A: inconclusive: 1.41 µM [inhibitor, partial curve, poor fit]

Q: Which Potency does the source give for `CCCCCn1c(=O)[nH]c2cc(C(=O)N3CCN(c4cccc(C(F)(F)F)c4)CC3)ccc2c1=O` here?
A: inconclusive: 5.01 µM [inhibitor, full curve]

Q: For `Cc1nn(C)c(C)c1CN(C)S(=O)(=O)c1ccc(F)cc1`, which “activity, negative = inhibition” value is on record?
A: inactive: -9.92%

Q: Which “activity, negative = inhibition” value does the source give for `CN(C)c1ccc(/C=C/c2c([N+](=O)[O-])c(=O)n(C)c(=O)n2C)cc1` here?
A: inactive: -0.327%

Q: With `CCOC(=O)C1=C(C)NC(=O)NC1c1ccsc1` (stereo not drawn) as the compound, how does the Potency read?
A: inconclusive: 1.26 µM [inhibitor, partial curve, poor fit]

Q: For `CCN(c1ccccc1)S(=O)(=O)c1nnc(NC(=O)COc2cccc(C)c2)s1`, which Potency is on record?
A: inconclusive: 0.1 µM [inhibitor, full curve, poor fit]

Q: With `O=C(COC(=O)c1cc(S(=O)(=O)N2CCCCC2)ccc1N1CCOCC1)c1ccc(F)cc1` as the compound, how does the “activity, negative = inhibition” value read?
A: inactive: -0.296%

Q: With `Cc1ccc2oc(=O)c(S(=O)(=O)c3ccc(C(C)(C)C)cc3)cc2c1` as the compound, how does the Potency read?
A: inconclusive: 0.1 µM [inhibitor, full curve, poor fit]

Q: Which Potency does the source give for `Cc1cc(C)cc(-n2c(C)cc(/C=N\NC(=O)COc3cccc4cccnc34)c2C)c1` here?
A: inconclusive: 35.5 µM [inhibitor, single point]

Q: With `COc1cccc(NC(=S)NCc2ccc(F)cc2)c1` as the compound, how does the “activity, negative = inhibition” value read?
A: inactive: -0.0966%

Q: With `CCc1ccccc1NC(=O)Nc1nnc(N(CC)c2ccccc2)s1` as the compound, how does the Potency read?
A: inconclusive: 25.1 µM [inhibitor, single point]

Q: For `Cc1cc(C)cc(C(=O)NCC(=O)OCC(=O)Nc2ccc(C)cc2Br)c1`, which “activity, negative = inhibition” value is on record?
A: inactive: 2.2%

Q: With `Cc1cc(C)cc(N2C(=O)N(Cc3cccc(F)c3)c3ccccc3S2(=O)=O)c1` as the compound, how does the Potency read?
A: inconclusive: 22.4 µM [inhibitor, single point]

Q: Which “activity, negative = inhibition” value does the source give for `COc1ccc(-c2sc3ccc(OC)cc3c2-c2ccc(OCCN3CCOCC3)cc2)cc1` here?
A: inactive: 23.8%
